In publication PMC4336329 (PLoS ONE, 2015):
The campaign covered roughly 310,000 compounds. About 2,200 (0.71%) showed an effect of 50% or more. The effect is printed as a negative number. This is one part of the list.

Molecular target: human ether-à-go-go-related gene (hERG) potassium channel (human, UniProt Q12809)
Experiment: primary screen, population patch clamp on CHO cells stably expressing hERG

Chain of human ether-à-go-go-related gene (hERG) potassium channel (Q12809 whole entry, looked up): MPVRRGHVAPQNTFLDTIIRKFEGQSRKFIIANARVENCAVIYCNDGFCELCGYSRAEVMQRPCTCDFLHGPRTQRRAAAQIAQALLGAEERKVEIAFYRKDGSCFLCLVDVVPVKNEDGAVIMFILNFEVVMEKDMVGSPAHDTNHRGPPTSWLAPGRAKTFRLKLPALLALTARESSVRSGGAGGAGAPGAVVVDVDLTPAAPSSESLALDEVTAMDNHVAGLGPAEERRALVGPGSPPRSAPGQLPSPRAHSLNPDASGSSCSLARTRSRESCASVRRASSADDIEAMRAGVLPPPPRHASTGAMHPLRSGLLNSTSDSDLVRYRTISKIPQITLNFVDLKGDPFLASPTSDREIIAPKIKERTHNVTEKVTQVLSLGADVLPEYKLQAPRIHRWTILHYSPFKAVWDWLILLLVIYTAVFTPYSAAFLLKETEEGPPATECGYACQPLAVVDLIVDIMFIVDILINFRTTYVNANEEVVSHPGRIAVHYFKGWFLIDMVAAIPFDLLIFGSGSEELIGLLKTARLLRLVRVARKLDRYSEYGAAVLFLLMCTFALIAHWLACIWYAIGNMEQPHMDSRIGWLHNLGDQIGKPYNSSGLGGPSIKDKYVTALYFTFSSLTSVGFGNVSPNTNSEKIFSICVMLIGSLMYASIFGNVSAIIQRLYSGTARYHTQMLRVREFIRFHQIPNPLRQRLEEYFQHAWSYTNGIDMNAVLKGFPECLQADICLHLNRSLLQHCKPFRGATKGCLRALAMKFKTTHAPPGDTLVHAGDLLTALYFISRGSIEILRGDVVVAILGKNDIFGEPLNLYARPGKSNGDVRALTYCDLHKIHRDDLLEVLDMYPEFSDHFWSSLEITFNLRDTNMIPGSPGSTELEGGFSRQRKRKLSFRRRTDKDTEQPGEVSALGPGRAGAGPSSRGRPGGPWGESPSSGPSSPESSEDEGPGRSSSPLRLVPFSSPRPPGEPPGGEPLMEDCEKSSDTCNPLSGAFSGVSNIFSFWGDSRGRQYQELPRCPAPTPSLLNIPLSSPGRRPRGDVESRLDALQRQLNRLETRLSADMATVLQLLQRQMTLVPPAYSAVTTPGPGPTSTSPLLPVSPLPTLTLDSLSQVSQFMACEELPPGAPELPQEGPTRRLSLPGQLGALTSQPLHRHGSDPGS

SMILES	hERG current change (%, negative = inhibition) at 1uM [%]
O=C(O)c1ccc(Cl)c(S(=O)(=O)NC(Cc2c[nH]c3ccccc23)C(=O)O)c1 (centres unmarked)	9.88
CN(C(=O)COC(=O)c1ccc(CN2CCCC2=O)cc1)c1ccccc1	-5.66
O=C(Nc1ccccc1Cl)Nc1ccccc1Cl	5.38
COc1cc2c(cc1NC(=O)COC(=O)/C=C/c1ccccc1)oc1ccccc12	8.84
CC(=O)c1cc2c(ccc3ccccc32)oc1=O	16.3
COC(=O)C1=C(C)N=C2SC(C)C(=O)N2C1/C=C/c1ccccc1 (centres unmarked)	0.432
CC(C)CC(=O)Nc1ccc(C(=O)COC(=O)C2CC(=O)N(Cc3ccccc3)C2)cc1 (centres unmarked)	12.4
O=C(Cc1ccccc1)NCC(=O)N1CCCC1	15.2
C=CCNC(=O)c1cc(C(=O)C(C)c2ncc(C(F)(F)F)cc2Cl)c[nH]1 (centres unmarked)	11.8
S=C1SCN(Cc2ccco2)CN1Cc1ccco1	13.7
CCOc1ccc(C(F)(F)F)cc1NC(=O)c1ccc(OC)c([N+](=O)[O-])c1	15.4
COc1ccc2oc3ccccc3c(=O)c2c1	15.6
COc1cccc(-n2cnc(=O)c3cccnc32)c1	14
CN(C)n1cccc1/C=C(\C#N)S(=O)(=O)c1cccc(Cl)c1	10.6
CC(C)(C)c1ccc(C(=O)N2CCC(C(=O)NCc3ccncc3)CC2)cc1	2.38
CCCCCC(=O)Nc1ccc(-c2cn3cccnc3n2)cc1	7.85
NS(=O)(=O)c1ccc(NC(=O)Nc2cccc3ccccc23)cc1	15.6
Cc1nn(-c2cccc(C(F)(F)F)c2)c(Cl)c1/C=N/n1cnnc1	-3.77
O=C(COC(=O)c1cccnc1)Nc1ccc2c(c1)OCO2	20.7
O=C(NCN1C(=O)C2C3C=CC(C3)C2C1=O)Nc1nncs1 (centres unmarked)	9.67
C[C@H](OC(=O)n1ccnc1)[C@@H]1O[C@@]2(C)CCC[C@@H]1O2	15.1
CC(C)c1nc(Cl)c(C#N)c2c1CCCC2	8.24

SMILES	hERG current change (%, negative = inhibition) at 1uM [%]
Cc1cc(C)cc(C(=O)N2CCN(Cc3ccc4c(c3)OCO4)CC2)c1	14.8
CCOC(=O)N/N=C(/C)c1cccc(-n2cnnn2)c1	20.2
CCC1Nc2ncnc(N3CCN(c4ccccn4)CC3)c2N(Cc2ccc(Cl)cc2)C1=O.O=C(O)C(F)(F)F (centres unmarked)	-13.2
Cc1ccc(NC(=O)CCN2C(=O)NC3(CCCC3)C2=O)c(C)c1	7.92
O=C(CNc1ccccc1)Nc1cccc2ccccc12	8.71
N=c1c2c(n(Cc3ccc(F)cc3)c3c1CCC3)CCC2	-2.36
O=C(NCc1cccs1)C(=O)NCC1OCCCN1S(=O)(=O)c1ccc(F)cc1 (centres unmarked)	7.16
Nc1ccc(S(=O)(=O)N2CCC(Cc3ccccc3)CC2)cc1	16.7
Cc1cc(N(C)C)nc(SC(C)C)n1	14.2
COc1ccc(NC(=O)c2cc(-c3ccccc3)nc3c2cnn3C(C)C)cc1	13.7
COc1ccc(-c2sc3ccc(OC)cc3c2C#Cc2ccccn2)cc1	15.3
CCOc1ccc2c(c1)c1nnc(SCC(=O)N3CCCCC3C)nc1n2C (centres unmarked)	-2.18
CSCCC(NC(=O)C1CCC(C)CC1)C(=O)NCCN1CCOCC1 (centres unmarked)	10.3
O=C(Nn1c(-c2ccc(F)cc2)nc2ccccc2c1=O)C1CCCCC1	12.1
O=C1C(Cl)=C(Nc2ccccc2O)C(=O)N1CCc1ccccc1	18.2
O=C1CSC(c2cccnc2)N1c1cccc(Cl)c1 (centres unmarked)	12.2
COc1cc(C(=O)NCc2nnc(SCC(=O)N3CCCCC3)o2)cc(OC)c1OC	11.6
CCOC(=O)Cc1nc2cc(Cl)ccc2o1	11.9
CC(C)n1nc(C(=O)Nc2nc3ccc(S(C)(=O)=O)cc3s2)c2ccccc2c1=O	14.6
O=C(CN1CCN(c2ccc(F)cc2)CC1)OCc1ccccc1	-9.96
COc1ccc(C(=O)Nc2ccc(C)cn2)cc1S(=O)(=O)N1CCCc2ccccc21	11.2
Cc1cccc(N2CCN(C(=O)c3c(-c4ccccc4Cl)noc3C)CC2)c1C	11.4
